Measured values: ChEMBL document CHEMBL4888484, “Replenishing the malaria drug discovery pipeline: Screening and hit evaluation of the MMV Hit Generation Library 1 (HGL1) against asexual blood stage Plasmodium falciparum ,using a nano luciferase reporter read-out” (2022)
In all, about 150,000 compounds went through this assay and about 540 (0.36%) showed an effect of 50% or more. The list shows a part of the results.

What follows are compounds tested on Plasmodium falciparum (assay: Primary screen in NF54 nanoGlo assay, in single point, at 2uM, 72h; a lower Z score goes with more inhibition). Conditions: timepoint 72 hour.
Assay type: functional, Erythrocyte

Structure (SMILES)	% Inhibition	Z score
Cc1nc(N2CCC[C@H](C(=O)O)C2)c2c(C)noc2n1	-8%	1.18
Cc1nnc([C@H](C)Nc2ccc3c(c2)OCCO3)o1	1%	-0.08
C[C@@H](Cc1ccc2c(c1)CCO2)NC(=O)c1ccc2nsnc2c1	4%	-0.63
NC(=O)Cn1cc(CN2CCc3ccc(Cl)cc32)nn1	-7%	1.08
CC[C@@H](CC#N)NC(=O)NC1CCCCC1	-15%	2.93
COc1cccc(CC(=O)N2CC(Cn3cncn3)C2)c1	4%	-0.64
Cc1nc2ccc(F)cc2c(OCc2csc([C@@H]3CCCO3)n2)c1C	-6%	0.76
O=C(c1cc(-c2ccco2)[nH]n1)N(C[C@H]1CCOC1)C1CC1	0%	-0.04
O=C(c1cocn1)N1CCC2(CCN(Cc3ccccc3)CC2)CC1	-6%	0.83
COc1ccc(Cl)c(CN(CC#N)S(=O)(=O)N(C)C)c1	5%	-0.71
Cc1ccc(NC(=O)[C@H](C)N(Cc2c(C)nn(C)c2C)C(C)C)cc1	8%	-1.05
CCCN(CC(=O)N1CCn2cccc2[C@H]1c1ccccc1F)C(=O)c1ccc(Cl)cc1	-10%	0.9
O=C(C1CCCC1)N1CC2CCCC(C1)C2O (configuration not stated)	-2%	0.26
O=C(CN1C(=O)C(=O)c2ccccc21)NCCc1ccccc1	-14%	1.84
C[C@H](NC(=O)CCc1ccccn1)c1ccc(-c2cccnc2)cc1	-1%	0.12
CC1CCCCC1CC(=O)Nc1[nH]ncc1C(=O)N(C)C (configuration not stated)	18%	-2.28
O=C(CN1CCC(c2nnc(-c3ccco3)s2)CC1)Nc1cccnc1	-11%	1.83
CCc1nc(COc2ccc(C(=O)NCc3nncn3C3CC3)cc2)no1	-6%	1.11
CCC[C@H]1CN(CCOCC)C[C@@H]1NC(=O)C1CCOCC1	4%	-0.69
CCOc1ncccc1-c1ccc(=O)n(C)n1	-5%	0.42
CC[C@H]1C[C@@H]1CN1CCN(S(=O)(=O)NC(C)C)CC1	6%	-1.19
Cc1cc(-c2cc(S(=O)(=O)NC(C)(C)C)c(C)s2)on1	1%	-0.14

Structure (SMILES)	% Inhibition	Z score
NC(=O)c1cc(S(=O)(=O)C(F)(F)F)cc(S(=O)(=O)C(F)(F)F)c1	-33%	3.88
CN1C(=O)CC[C@H]1C(=O)NCc1nc(COc2ccccc2)n[nH]1	3%	-0.32
COc1ccc(OC)c(N2CCCNC2=O)c1	-3%	0.55
CC(C)Oc1cccc(CC(=O)N2CCCC[C@H]2c2ncon2)c1	-9%	1.13
Cc1cc(C(=O)N2Cc3ccccc3C2)c(=O)[nH]c1C	-6%	1.04
Cc1ccc(-c2cc(C(=O)Nc3ccc4c(c3)OCCO4)c3ccccc3n2)s1	32%	-3.66
OCC1CCCCCC1NCc1nnc(-c2ccc(Cl)cc2)o1 (configuration not stated)	-16%	1.65
CC(NC(=O)N(C)CC1CCN(C)C1)c1csc2ccccc12 (configuration not stated)	-12%	0.97
O=C1CCc2cc(NC(=O)NCc3ccc(C4CC4)cc3)ccc2N1	0%	0
CC1CCN(c2cncnc2-n2cc(NC(=O)C3CCCC3)cn2)CC1	-9%	1.02
Cc1c(CC(=O)Nc2cc(F)cc(F)c2)c(=O)n2nc(-c3ccccc3)nc2n1Cc1ccccc1	7%	-0.9
Cc1nnc(CN[C@H](c2ccccc2)C2(CO)CCOCC2)s1	10%	-1.24
CN(Cc1nccn1C)C(=O)NCCC1=CCCCC1	-4%	0.4
CC1CC(NC(=O)N2CC(C3CCC3)C2)C1 (configuration not stated)	-12%	1.72
Cc1c(C(=O)N2CCCCCC2CC(O)c2ccco2)cnn1C (configuration not stated)	1%	-0.16
c1cc(Cn2ccnc2-c2c[nH]cn2)c2cc[nH]c2c1	-13%	1.52
CCOC(=O)[C@@](C)(C#N)Cc1ccncc1	-16%	1.65
COc1ccccc1C1CC1NC(=O)Nc1nnc(C(F)F)s1 (configuration not stated)	-8%	1.56
c1cncc(C2CN(c3nccnc3N3CCCC3)C2)c1	3%	-0.43
Cc1ncoc1C(=O)N1CCn2nc([C@@H](O)Cc3ccccc3)cc2C1	-4%	0.67
CN(CC#N)[C@H](c1ccc(Cl)cc1)C(F)(F)F	-12%	1.33
O=C(Nc1n[nH]c2c(Cl)cccc12)C1CCN(CC(F)F)CC1	-5%	0.67

Structure (SMILES)	% Inhibition	Z score
COc1ccc(-n2nc(C(=O)N3CCN(C(C)=O)CC3)c(=O)n(Cc3cccc(F)c3)c2=O)cc1OC	-3%	0.47
CCn1c(=O)c(-c2ccc(C(=O)NCc3cc(OC)ccc3OC)cc2)nc2ccccc21	-12%	2.25
CNS(=O)(=O)NC1CCCCC1OC (configuration not stated)	0%	-0.01
COc1ccc(S(=O)(=O)Nc2ccc(N3CCC(N4CCCCC4)CC3)c(C(=O)O)c2)cc1	-11%	1.08
CN(C/C=C/c1ccccc1)C(=O)c1ccc2nc(-c3ccccc3)cn2c1	2%	-0.28
FC(F)(F)c1nnc2n1CCN(c1nnnn1-c1ccccc1)C2	-7%	0.63
Nc1c2c(-c3cccc(Cl)c3)nc(NCC3CC3)nc2nn1-c1ccccc1Cl	-19%	2.45
O=C(NCC1CCCCC1)C1CCCCC1	-14%	1.36
O=C(O)c1ccc(CN2CC(c3cccnc3)C2)cc1	-14%	1.85
Cc1cccc(C(=O)N2[C@H](C(=O)N3CCCC3)COC23CCN(C(=O)c2ccc(Cl)c(Cl)c2)CC3)c1	-12%	1.2
COC[C@H]1COCCN1C(=O)c1cnc2n1CCCCC2	3%	-0.61
Cn1nc(-c2cnccn2)cc1CNS(=O)(=O)c1cccs1	14%	-1.75
O=C(NCC(=O)c1cccc2ccccc12)c1cscn1	-9%	1.32
CN(CCc1cccc2ccccc12)CC1OCCO1	-11%	1.48
CCCCNC(=O)c1cccnc1Oc1cccc(NS(=O)(=O)c2ccc(C)cc2)c1	-7%	1.09
NC[C@H]1Cc2cccc(-c3cc(C4CC4)ncn3)c2O1	8%	-1.56
Cc1ccc(CN2CCN(Cc3c(C)nn(C(C)C)c3C)C[C@@H]2CCO)o1	0%	0.02
Cc1cc(C(=O)O[C@@H](C)c2ccc(Cl)cn2)on1	3%	-0.45
CN(C)C(C)(C)C(=O)NCc1ccccc1Cl	7%	-1.26
N#CCC(=O)Nc1ccccc1-c1ncc2n1CCCC2	-4%	0.4
Cc1oc(-c2cccc(Cl)c2)nc1CN1CCN(S(=O)(=O)c2ccccc2)CC1	-2%	0.4
NC(CC1CC1)=NOCC(=O)N1CCCCCCC1	0%	-0.05

Structure (SMILES)	% Inhibition	Z score
CCCOCC(=O)NC[C@@H]1CCCC[C@@H]1N1CCOCC1	-15%	1.92
Cc1n[nH]cc1C1CCN(C(=O)C[C@H]2CCCN(C(=O)NCC(C)C)C2)CC1	-3%	0.32
NS(=O)(=O)c1ccc(CNC(=O)c2[nH]nc3c2CCC3)cc1	-2%	0.29
CCC(NS(=O)(=O)c1cc(C)cc(C)c1)[C@H]1C[C@H](O)C1 (some centres not stated)	5%	-1.05
Cc1n[nH]c(CN(C)CCn2ccnc2)c1Cl	7%	-1.16
CCOc1cccc(C2CC(c3cccc(OC)c3)=NC(C(C)C)N2)c1O (configuration not stated)	3%	-0.41
CCCCN(C)C(=O)[C@H]1CCCN(c2cccc3c2C(=O)N(c2cccc(Cl)c2)C3=O)C1	-13%	1.69
COc1ccc(-c2nc(NCc3ccco3)n(S(=O)(=O)c3ccccc3)n2)cc1	-11%	1.36
Cc1oc2ccccc2c1C(=O)N1CCC(F)(c2ccccn2)CC1	-3%	0.54
CNCC1CCCN1C(=O)C1CC1c1cc(F)ccc1F (configuration not stated)	-7%	0.66
COc1ccc(N2CCN(C(=O)c3ccc4nc(-c5ccc(OC)c(OC)c5)c(-c5ccc(OC)c(OC)c5)nc4c3)CC2)cc1	10%	-1.2
COc1ccc(C(=O)Nc2ccc(-c3ccc(N4CCCCC4)nn3)cc2)cc1	-11%	1.35
Cc1nc(CC(C)C)c(C(=O)N2CC[C@H](c3nncn3C)C2)s1	2%	-0.25
CCOc1ccc2c(C)c(C(=O)NCc3cc(C)no3)oc2c1OCC	4%	-0.69
CCOC1CC(NC(=O)N(C)C2CCN(C)C2=O)C12CCOCC2 (configuration not stated)	-2%	0.21
COc1ccc(Nc2nc(N3CCC(C(N)=O)CC3)nc3[nH]nnc23)cc1	-12%	1.89
Clc1cc(Cn2nnnc2N2CCOCC2)cc2c1OCCO2	-13%	2.44
CCc1nnsc1C(=O)N[C@@H](C)CCc1cccn1C	-6%	0.85
C[C@H](NC(=O)c1ccoc1)c1ncnn1C	11%	-2.09
CC(C)c1cc(C(=O)N2CCC[C@@]3(CCCO3)CC2)n(C)n1	-15%	1.62
